Measurements taken from PubChem BioAssay AID504332 (National Center for Advancing Translational Sciences (NCATS), 2011).
The whole screen tested about 350,000 compounds, of which about 31,000 (8.9%) were called active. The inconclusive results got no clear call from the source; some entries with a clear call stand among them for comparison. Calls follow the shape of the dose curve; as a rule, active = well fitted inhibition curve with a large enough effect; inconclusive = small, poorly fitted or top-dose-only effect; inactive = no such curve, though single readings can be large or run the other way. Where the call is inconclusive, the potency comes from a doubtful curve fit. Some compounds were tested as several samples or in several runs, with calls that do not always agree.

Biological target: Histone-lysine N-methyltransferase EHMT2 (Homo sapiens) (UniProt Q96KQ7)
Experiment: qHTS Assay for Inhibitors of Histone Lysine Methyltransferase G9a; also: nearly all actives have a fitted effect of over 75% in size
Conditions: G9a H3K9 monomethylation, AlphaScreen, 2 h; activity, negative = inhibition: at 59 µM (top of the series) unless noted
Summary of the method: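 Step 1: enzyme (final 20 nM) with compound, 15 min RT. Step 2: substrate peptide 500 nM and SAM 20 uM, 2 h RT. Step 3: anti-H3K9me1 antibody and AlphaScreen beads, 10 min, then plate read.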
% is scaled to controls: 0 for no effect and ±100 for the full control effect; potency is read from the fitted curve at half-maximal effect; tags tell the direction and shape of the fitted curve.

Chain of UniProt Q96KQ7 (Q96KQ7 whole entry, looked up): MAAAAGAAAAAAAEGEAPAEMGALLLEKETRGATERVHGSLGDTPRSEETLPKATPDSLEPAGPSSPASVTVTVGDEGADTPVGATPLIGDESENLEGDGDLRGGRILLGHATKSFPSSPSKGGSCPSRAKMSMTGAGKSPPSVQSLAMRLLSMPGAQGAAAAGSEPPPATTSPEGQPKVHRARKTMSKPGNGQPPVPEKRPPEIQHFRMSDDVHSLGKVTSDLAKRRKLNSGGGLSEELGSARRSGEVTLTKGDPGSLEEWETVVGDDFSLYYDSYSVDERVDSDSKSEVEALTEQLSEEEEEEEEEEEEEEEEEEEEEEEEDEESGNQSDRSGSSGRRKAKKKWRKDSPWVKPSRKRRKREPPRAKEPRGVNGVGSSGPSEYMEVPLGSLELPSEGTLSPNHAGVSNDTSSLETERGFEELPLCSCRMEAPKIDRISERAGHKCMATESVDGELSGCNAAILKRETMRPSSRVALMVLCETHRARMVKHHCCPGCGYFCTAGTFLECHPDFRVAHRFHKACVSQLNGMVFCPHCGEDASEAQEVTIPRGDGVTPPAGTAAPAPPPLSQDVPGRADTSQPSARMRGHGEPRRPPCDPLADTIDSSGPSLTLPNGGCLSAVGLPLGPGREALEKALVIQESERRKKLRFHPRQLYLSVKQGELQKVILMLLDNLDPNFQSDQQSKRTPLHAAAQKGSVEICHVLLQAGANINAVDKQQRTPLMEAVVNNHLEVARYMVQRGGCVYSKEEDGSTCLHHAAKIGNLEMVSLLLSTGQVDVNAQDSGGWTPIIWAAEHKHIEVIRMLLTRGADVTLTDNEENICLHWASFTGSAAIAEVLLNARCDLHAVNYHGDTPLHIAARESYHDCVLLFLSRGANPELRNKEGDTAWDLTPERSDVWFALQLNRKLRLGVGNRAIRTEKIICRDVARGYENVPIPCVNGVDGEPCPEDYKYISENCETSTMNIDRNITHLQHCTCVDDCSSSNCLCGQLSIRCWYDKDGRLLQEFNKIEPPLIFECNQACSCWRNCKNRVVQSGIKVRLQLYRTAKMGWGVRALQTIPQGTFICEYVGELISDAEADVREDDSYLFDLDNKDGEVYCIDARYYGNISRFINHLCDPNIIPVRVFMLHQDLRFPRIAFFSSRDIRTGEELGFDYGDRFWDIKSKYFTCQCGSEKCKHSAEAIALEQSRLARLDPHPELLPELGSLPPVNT

Row | SMILES | Potency | activity, negative = inhibition
1 | Cc1cccc(N(C(=O)c2csnn2)C(C(=O)NCc2ccccc2)c2ccc(C)o2)c1 (configuration not stated) | inactive | –
2 | O=C(COC(=O)Cc1c(Cl)cccc1Cl)Nc1ccc2[nH]c(=O)[nH]c2c1 | active: 50.1 µM | –
3 | CO/N=C(\Cn1ncc(N2CCCC2)c(Br)c1=O)c1ccc(Cl)cc1 | inconclusive: 39.8 µM [inhibitor, single point] | –
4 | NC(=O)c1c(NC(=O)c2ccncc2)sc2c1CCCC2 | inconclusive: 44.7 µM [inhibitor, partial curve, poor fit] | –
5 | CCN1CCN(C(=O)c2ccc(Cl)c(S(=O)(=O)N(C)c3ccccc3)c2)CC1 | active: 17.8 µM | –
6 | COc1cc2nc(NC(=O)c3ccccc3)sc(=O)c2cc1OC | inactive | –
7 | CC1(C)CC(=O)C(C=Nc2cccnc2)=C(O)C1 | – | inactive: 8.9% [at 2.33 µM]
8 | CN(C)c1ccc(CNC(=O)c2cc3ccccn3n2)cc1 | active: 15.8 µM | –
9 | COc1cc(C2C(C(C)=O)=C(O)C(=O)N2CCc2c[nH]c3ccccc23)ccc1O (configuration not stated) | active: 50.1 µM | –
10 | CCOC(=O)C1CCN(C(=O)CSc2n[nH]c(-c3ccccc3Cl)n2)CC1 | inconclusive: 31.6 µM [inhibitor, single point] | –
11 | CN(C)c1ccc(C(CNC(=O)Cc2ccc(Cl)cc2)N2CCOCC2)cc1 (configuration not stated) | inconclusive: 12.6 µM [inhibitor, partial curve] | –
12 | Cc1cc(OCC(=O)Nc2cnn(CCCC(=O)O)c2)ccc1Cl | active: 14.1 µM | –
13 | COc1ccc(CN(Cc2ccc(C(=O)O)cc2)C(=S)Nc2ccccc2Cl)cc1OC | inactive | –
14 | Cc1cc(NC(=O)CSc2nnc(Nc3ccccc3C)s2)no1 | inconclusive: 44.7 µM [inhibitor, partial curve, poor fit] | –
15 | CSc1nnc(Cc2cc(=O)[nH]c(=O)[nH]2)n1-c1cc(C)ccc1C | – | inconclusive: -75% [inhibitor]
16 | O=C(Nc1c(F)cc(F)cc1Br)c1cc(S(=O)(=O)N2CCN(c3ccccn3)CC2)ccc1F | active: 50.1 µM | –
17 | Cc1ccc(S(=O)(=O)c2cc(O)ccc2O)cc1C | active: 50.1 µM | –
18 | CC(c1ccccc1)N1CC(C(=O)Nc2ccc(F)cc2)CC1=O (configuration not stated) | – | inconclusive: -51.6% [inhibitor]
19 | CC(=O)c1ccc(OCCCC(=O)Nc2ccc(C)c(S(=O)(=O)N3CCOCC3)c2)cc1 | active: 50.1 µM | –
20 | COc1ccc(S(=O)(=O)Nc2ccc3c(c2)N(C(C)=O)CCC3)cc1OC | inconclusive: 100 µM [inhibitor, single point] | –
21 | Cc1nnc(NC(=O)C2c3ccccc3Oc3ccccc32)s1 | active: 11.2 µM | –
22 | CCc1nn(CCCC(=O)NCc2ccccc2C)c(=O)c2cc3occc3n12 | inconclusive: 35.5 µM [inhibitor, partial curve, poor fit] | –
23 | CC1CCC2(CC1)NC(=O)N(CC(=O)Nc1ccc(F)cc1)C2=O (configuration not stated) | inactive | –
24 | Cc1ccc(S(=O)(=O)c2nc(-c3ccco3)oc2SC(C)C)cc1 | active: 44.7 µM | –

Row | SMILES | Potency | activity, negative = inhibition
25 | COc1cc(C2NC(C(=O)O)CS2)ccc1OCc1ccccc1C#N (configuration not stated) | active: 20 µM | –
26 | COc1ccc(CNC(=O)C(c2ccco2)N(C(=O)CNS(=O)(=O)c2ccccc2)c2ccccc2C)cc1 (configuration not stated) | inconclusive: 11.2 µM [inhibitor, partial curve, poor fit] | –
27 | CCOc1ccc(NC(=O)CSc2cc(C)c3ccccc3n2)cc1 | inactive | –
28 | CCOC(=O)c1ccc(Nc2ncnc3c2cnn3C)cc1 | inconclusive: 79.4 µM [inhibitor, single point] | –
29 | CN(CCOc1ccccc1)CC(O)COc1ccccc1 (configuration not stated) | inconclusive: 89.1 µM [inhibitor, single point] | –
30 | COC(=O)c1ccc(COc2ccc(/C=N/O)cc2)o1 | inconclusive: 20 µM [inhibitor, partial curve, poor fit] | –
31 | c1ccc(Nc2ccccn2)nc1 | active: 0.501 µM | –
32 | Cc1ccc(/C=C2\Oc3cc(OCC(=O)NN)ccc3C2=O)o1 | inconclusive: 89.1 µM [inhibitor, single point] | –
33 | Cn1c(SCC(=O)NC(=O)CN2CCCC2=O)nnc1-c1ccc(F)cc1 | inactive | –
34 | O=C(c1ccc(-c2ccc([N+](=O)[O-])cc2)o1)N1CCCCC1 | inconclusive: 28.2 µM [inhibitor, single point] | –
35 | CCOC(=O)c1cnc2ccccc2c1NCc1ccco1 | inactive | –
36 | CC(=O)N1CCc2c(sc(NC(=O)CCS(=O)(=O)c3ccc(C)cc3)c2C(N)=O)C1 | inconclusive: 79.4 µM [inhibitor, partial curve, poor fit] | –
37 | Cn1c(=O)c2c(nc(SCC(=O)Nc3ccc(F)cc3F)n2Cc2ccccc2)n(C)c1=O | inconclusive: 12.6 µM [inhibitor, partial curve, poor fit] | –
38 | COc1ccc(/C=C/C(=O)Nc2ccc3nc(N4CCC(C)CC4)cc(C)c3c2)cc1OC | inconclusive: 4.47 µM [inhibitor, partial curve, poor fit] | –
39 | Cc1ccc(/C=N/NC(=O)c2nnn(-c3nonc3N)c2-c2ccccc2)o1 | inconclusive: 79.4 µM [inhibitor, single point] | –
40 | CC(=O)Nc1nonc1-c1nnc(SCc2ccc(F)cc2Cl)n1C | inactive | –
41 | C#CCNC(=O)C1=C[C@H](c2ccc(Br)cc2)C[C@H](OCCCCO)O1 | – | inconclusive: -82.5% [inhibitor]
42 | CN1CC(=O)N/C1=N/C(=O)Nc1cccc(Cl)c1 | inconclusive: 26.7 µM [inhibitor, single point] | –
43 | COc1ccc(OC)c(NC(=O)CN2CCN(C(=O)c3ccco3)CC2)c1 | inconclusive: 89.1 µM [inhibitor, single point] | –
44 | Cc1cc(C)cc(NC(=O)c2sc3nc(-c4ccccc4)cn3c2C)c1 | inactive | –
45 | CC(=O)Nc1ccc(C(=O)NNC(=O)c2ccccc2-n2cccc2)cc1 | – | inconclusive: -76.8% [inhibitor] [at 12.7 µM]
46 | COC(=O)C1=C(C(=O)OC)SC(=C2C(=S)C(C)(C)N(C(=O)C3CC3)c3ccccc32)S1 | active: 1.58 µM | –
47 | Cc1n[nH]c(=S)n1Cc1ccccc1 | active: 35.5 µM | –
48 | O=C1COc2ccc(C(=O)COC(=O)COc3ccccc3[N+](=O)[O-])cc2N1 | inconclusive: 50.1 µM [inhibitor, partial curve] | –

Row | SMILES | Potency | activity, negative = inhibition
49 | O=C(Nc1ccc(Oc2ccccc2)cc1)c1cnc2n(c1=O)CCS2 | active: 56.2 µM | –
50 | Oc1ccc(/C=N/n2c(-c3ccccc3)n[nH]c2=S)cc1Br | active: 0.891 µM | –
51 | COCCCn1cnc2c(c1=O)c1nc3ccccc3nc1n2-c1ccccc1 | inconclusive: 89.1 µM [inhibitor, single point] | –
52 | O=C1NC(Cc2c[nH]c3ccccc23)C(=O)N1CCOc1ccc(F)cc1 (configuration not stated) | inconclusive: 79.4 µM [inhibitor, partial curve, poor fit] | –
53 | O=C(NC(=S)Nc1ccc(C(F)(F)F)cc1)c1csnn1 | inconclusive: 89.1 µM [inhibitor, partial curve, poor fit] | –
54 | Cc1cc(=O)n(Cc2cccc(Br)c2)c2c1c(C)nn2-c1ccccc1 | inactive | –
55 | Cc1cc(Cl)ccc1NS(=O)(=O)c1ccc2c(c1)CCN2S(C)(=O)=O | inactive | –
56 | COc1cc(NC(=O)c2ccc3nsnc3c2)cc(OC)c1OC | inconclusive: 89.1 µM [inhibitor, single point] | –
57 | Cc1cc(C)n(C(=O)CN2C(=O)c3ccccc3C2=O)n1 | inconclusive: 25.1 µM [inhibitor, partial curve, poor fit] | –
58 | Cn1cc(Cl)c(C(=O)Nc2nc3ccc([N+](=O)[O-])cc3s2)n1 | inconclusive: 89.1 µM [inhibitor, partial curve, poor fit] | –
59 | CC(=O)N1[C@H](C)C=C[C@]1(Cc1ccccc1)C(=O)NCc1cc(F)cc(C(F)(F)F)c1 | inconclusive: 89.1 µM [inhibitor, single point] | –
60 | O=C(NCC1CCCO1)c1ccc(S(=O)(=O)Nc2ccc(F)cc2)cc1 (configuration not stated) | inactive | –
61 | COc1cccc(OCc2nnc3n2N=C(c2ccccc2)C(CC(=O)O)S3)c1 (configuration not stated) | active: 44.7 µM | –
62 | COc1cccc(C(=O)N2CC(=O)Nc3ccc(C)cc3C2c2ccc(F)cc2)c1OC (configuration not stated) | inconclusive: 4.47 µM [inhibitor, single point] | –
63 | CC(=C\c1ccccc1)/C=C1/SC(=S)N(CCCC(=O)O)C1=O | active: 39.8 µM | –
64 | NC(=S)NNc1cc(Cl)cc(Cl)c1 | inconclusive: 3.16 µM [inhibitor, single point] | –
65 | CCOC(=O)c1ccc(N/C=C2/CCCC(C)C2=O)cc1 (configuration not stated) | inconclusive: 3.16 µM [inhibitor, full curve, poor fit] | –
66 | CN(C)Cc1ccccc1-c1cncnc1Nc1ccncc1 | – | inactive: 11.9% [at 0.501 µM]
67 | FC(F)Oc1ccc(/C=N/N2CCCCC2)c(OC(F)F)c1 | active: 56.2 µM | –
68 | Cc1c(Cl)cccc1-n1c(SCC(=O)NCc2ccccc2)nc2n[nH]c(C)c2c1=N | inactive | –
69 | COc1ccc(NC(=O)CC2C(=O)N(c3ccc(OC)cc3)C(=O)N2C2CCCCC2)cc1 (configuration not stated) | inconclusive: 39.8 µM [inhibitor, single point] | –
70 | COc1cc(C(=O)NCC2CCCO2)ccc1OCc1ccc(Cl)cc1Cl (configuration not stated) | – | inactive: 7.42% [at 12.7 µM]
71 | O=C(Nc1ccccc1)C1=C(O)CC(c2ccoc2)CC1=Nc1ccccc1 (configuration not stated) | inconclusive: 6.31 µM [inhibitor, partial curve] | –
72 | CC(OC(=O)CNC(=O)C12CC3CC(CC(C3)C1)C2)C(=O)Nc1ccc(N2CCOCC2)cc1 (configuration not stated) | inconclusive: 89.1 µM [inhibitor, single point] | –
